# Literature values in publication PMC11006913.
# The list shows a part of the results.
# Target: PITX2 L100Q (Homo sapiens) (UniProt Q99697)
# Settings: PBM; conditions not shown; double strand, one strand shown; scale: upbm affinity estimate (log intensity, higher = more binding, comparable within an allelic series)
row,Sequence,binding signal
1,GATTAGTA [8-mer GATTAGTA],10.8
2,AATAATGC [8-mer AATAATGC],9.87
3,GATTAAAA [8-mer GATTAAAA],10.8
4,CGGCCCCA [8-mer CGGCCCCA],8.21
5,GTATTAGA [8-mer GTATTAGA],10.3
6,ACCACGCC [8-mer ACCACGCC],8.16
7,CACTAATC [8-mer CACTAATC],10.8
8,GCGGCCAC [8-mer GCGGCCAC],7.93

# Target: PITX2 R108H (Homo sapiens) (UniProt Q99697)
# Settings: PBM; conditions not shown; double strand, one strand shown; scale: upbm affinity estimate (log intensity, higher = more binding, comparable within an allelic series)
row,Sequence,binding signal
1,ACGGTAAT [8-mer ACGGTAAT],8.74
2,TGATCCCA [8-mer TGATCCCA],8.58
3,GCAAAGCC [8-mer GCAAAGCC],8.18
4,GTAAGCCA [8-mer GTAAGCCA],8.5
5,CTAAAGCC [8-mer CTAAAGCC],8.58
6,CTGATCCC [8-mer CTGATCCC],8.47
7,GGGGATCA [8-mer GGGGATCA],8.57
8,CCTGATCC [8-mer CCTGATCC],8.38
9,ATCCCCTA [8-mer ATCCCCTA],8.75
10,CGGTTTTA [8-mer CGGTTTTA],8.53
11,GATAAGAA [8-mer GATAAGAA],8.83
12,CGGCTTAG [8-mer CGGCTTAG],8.59
13,CTTAATTC [8-mer CTTAATTC],9.22
14,AAGATCCC [8-mer AAGATCCC],8.38
15,AAAGCCCC [8-mer AAAGCCCC],8.3
16,GGCTTACC [8-mer GGCTTACC],8.44
17,GAGGCTTA [8-mer GAGGCTTA],8.66
18,AGATCCCC [8-mer AGATCCCC],8.28
19,CTATAATA [8-mer CTATAATA],8.82
20,CTAAGCTC [8-mer CTAAGCTC],8.46
21,GATTAAAA [8-mer GATTAAAA],9.38
22,CGGCCCCA [8-mer CGGCCCCA],7.99
23,GGGATCAC [8-mer GGGATCAC],8.44
24,ACCACGCC [8-mer ACCACGCC],8.29
25,AAGTCTAA [8-mer AAGTCTAA],8.7
26,AAGATTAT [8-mer AAGATTAT],9.27
27,GGGCTTTA [8-mer GGGCTTTA],8.39
28,CCGGCTTA [8-mer CCGGCTTA],8.54
29,CCTAAGCC [8-mer CCTAAGCC],8.57
30,GCGGCCAC [8-mer GCGGCCAC],8
